This is one part of the list. The full chains were built here from the parent and the listed change. Inactive controls read about 0.05.
B1: TEV protease; numbered along this chain (parent)
chain: MGESLFKGPRDYNPISSSICHLTNESDGHTTSLYGIGFGPFIITNKHLFRRNNGTLVVQSLHGVFKVKDTTTLQQHLVDGRDMIIIRMPKDFPPFPQKLKFREPQREERICLVTTNFQTKSMSSMVSDTSCTFPSGDGIFWKHWIQTKDGQCGSPLVSTRDGFIVGIHSASNFTNTNNYFTSVPKNFMELLTNQEAQQWVSGWRLNADSVLWGGHKVFMVKPEEPFQPVKEATQL

Variants of: B1
Test: raw area under fraction-flipped curve 0-4 h after induction (AUC4h, not background-subtracted), DNA-recorder readout of cleavage of the substrate (dimensionless); higher = more cleavage of the substrate by the protease variant
Conditions: temperature: 34 °C; time window: 0-4 h after rhamnose induction
Procedure: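 In vivo DNA recorder in E. coli TOP10(DE3) ΔrhaA at 34 °C. Each TEVp single-site mutant (parent TEVp 0) is paired with a single-site variant of the 7-mer TEVs (canonical ENLYFQ|S). The substrate sits between flexible linkers in a Bxb1-sfGFP-TEVs-SsrA fusion, so cleavage stabilises Bxb1 and speeds flipping of a recombination array, read by NGS. The value is the raw area under the fraction-flipped curve over 0-4 h after rhamnose induction (AUC4h), with ≥20 reads per time point. It is not background-subtracted; inactive controls average about 0.047.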
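Further: Bxb1 expression induced with 0.2% (w/v) L-rhamnose at OD600 near 0.5, cultures sampled hourly, flipped fraction per protease–substrate barcode pair counted by paired-end Illumina sequencing.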

Variant | area with substrate ENLCFQS | area with substrate ENLDFQS | area with substrate ENLFFQS | area with substrate ENLGFQS | area with substrate ENLHFQS | area with substrate ENLIFQS | area with substrate ENLKFQS | area with substrate ENLMFQS | area with substrate ENLNFQS | area with substrate ENLPFQS | area with substrate ENLQFQS | area with substrate ENLVFQS | area with substrate ENLWFQS | area with substrate ENLAFQS | area with substrate ENLLFQS | area with substrate ENLRFQS | area with substrate ENLSFQS | area with substrate ENLEFQS | area with substrate ENLTFQS
T30A | 0.0689 | 0.0645 | 0.0758 | 0.0701 | 0.0939 | 0.0698 | 0.0917 | 0.0496 | 0.0651 | 0.071 | 0.0605 | 0.0766 | 0.0608 | – | – | – | – | – | –
K216W | 0.0691 | 0.0563 | 0.0768 | – | 0.0749 | 0.0663 | 0.069 | – | – | – | – | 0.071 | – | 0.0651 | 0.0862 | 0.0658 | 0.0491 | – | –
S26M | 0.0748 | 0.0622 | 0.0726 | 0.0655 | 0.0698 | 0.101 | 0.0672 | – | 0.0605 | 0.0651 | 0.0425 | 0.0738 | – | – | 0.0612 | – | – | 0.0662 | –
W199I | – | – | 0.0557 | – | – | – | – | – | – | 0.0512 | – | 0.0449 | – | 0.0611 | 0.0572 | – | – | – | –
W199V | 0.0646 | 0.0689 | 0.0808 | – | 0.0696 | 0.0382 | 0.0807 | 0.0669 | 0.0651 | 0.0646 | – | – | 0.0483 | 0.0513 | 0.0679 | – | 0.0594 | – | –
W199M | 0.069 | 0.0753 | 0.117 | 0.106 | 0.0549 | 0.0637 | 0.0698 | – | 0.0757 | 0.0474 | 0.0647 | – | – | 0.061 | – | 0.0704 | 0.0603 | 0.0637 | –
Q227G | 0.0662 | 0.0537 | 0.0891 | 0.0536 | 0.0553 | – | 0.0933 | – | 0.054 | – | – | – | 0.0666 | 0.0502 | – | 0.078 | 0.0405 | – | –
L190C | 0.0676 | 0.0719 | – | 0.0541 | 0.0732 | 0.081 | 0.0709 | – | 0.0864 | 0.0619 | – | 0.1 | – | 0.061 | – | – | 0.0613 | – | –
L190E | – | 0.0613 | 0.0761 | – | 0.0917 | – | 0.0721 | – | 0.0683 | – | – | 0.0793 | 0.0731 | 0.0867 | 0.0697 | 0.0776 | 0.0558 | 0.0718 | –
V210T | 0.0548 | 0.0783 | – | 0.0879 | 0.0568 | 0.0374 | 0.0582 | – | 0.0533 | 0.0765 | 0.0654 | 0.0656 | – | 0.0619 | – | – | 0.0556 | 0.0558 | –
V210F | – | – | – | – | 0.0679 | 0.0622 | 0.0691 | – | 0.062 | 0.0518 | 0.0585 | – | 0.0606 | 0.0598 | 0.0492 | 0.0644 | 0.0664 | 0.0723 | 0.0482
P9H | 0.069 | 0.0634 | 0.0824 | 0.0775 | 0.0365 | – | – | – | 0.0657 | 0.0572 | 0.0646 | – | 0.0663 | – | – | – | – | – | –
C20Y | 0.0452 | 0.051 | 0.0616 | – | 0.0572 | 0.0416 | 0.0763 | – | – | 0.0455 | 0.0431 | 0.0639 | – | – | – | – | 0.0619 | 0.0803 | –
L211F | 0.0595 | 0.0543 | 0.095 | 0.0697 | 0.0689 | 0.089 | – | 0.0873 | – | 0.0769 | 0.0834 | 0.092 | – | 0.0712 | 0.0671 | – | – | 0.0738 | –
Y34E | 0.0677 | 0.0661 | 0.0552 | – | – | 0.06 | 0.0613 | – | – | – | – | – | 0.0711 | – | – | 0.0654 | 0.0614 | – | –

Source: the supplement of paper PMC12217912
